Data from paper PMC4265154, “A reversible Renilla luciferase protein complementation assay for rapid identification of protein–protein interactions reveals the existence of an interaction network involved in xyloglucan biosynthesis in the plant Golgi apparatus” (Journal of Experimental Botany, 2014).
These are yes or no findings as the source states them, for the method shown. In cells and extracts the contact can be indirect. Some binding calls cover weakened binding; strength is not graded here. Where a sequence is shown, tags or fusion partners need not be part of it.

T1: MURUS3/KATAMARI1 (MUR3) fused to hRluc fragment [F1] or [F2] (Arabidopsis thaliana) (UniProt Q7XJ98)
T1 sequence: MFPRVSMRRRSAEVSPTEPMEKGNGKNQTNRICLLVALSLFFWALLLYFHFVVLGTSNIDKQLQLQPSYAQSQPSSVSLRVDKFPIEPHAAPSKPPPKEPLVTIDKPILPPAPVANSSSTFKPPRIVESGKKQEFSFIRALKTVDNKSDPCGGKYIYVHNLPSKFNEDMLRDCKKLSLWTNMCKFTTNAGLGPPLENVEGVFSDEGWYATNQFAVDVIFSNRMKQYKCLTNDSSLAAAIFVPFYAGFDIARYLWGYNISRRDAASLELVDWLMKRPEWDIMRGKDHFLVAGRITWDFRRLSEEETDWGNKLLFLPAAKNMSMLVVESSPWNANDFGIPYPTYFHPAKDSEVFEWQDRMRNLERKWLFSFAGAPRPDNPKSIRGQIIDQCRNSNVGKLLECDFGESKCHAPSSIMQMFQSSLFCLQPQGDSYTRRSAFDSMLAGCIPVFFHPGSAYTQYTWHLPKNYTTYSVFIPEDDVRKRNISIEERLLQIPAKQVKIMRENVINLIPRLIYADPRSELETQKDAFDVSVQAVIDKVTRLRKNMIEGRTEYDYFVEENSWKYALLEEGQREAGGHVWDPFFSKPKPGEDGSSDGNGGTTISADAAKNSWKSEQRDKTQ

T2: XXT2 fused to hRluc fragment [F1] or [F2] (Arabidopsis thaliana) (UniProt O22775)
T2 sequence: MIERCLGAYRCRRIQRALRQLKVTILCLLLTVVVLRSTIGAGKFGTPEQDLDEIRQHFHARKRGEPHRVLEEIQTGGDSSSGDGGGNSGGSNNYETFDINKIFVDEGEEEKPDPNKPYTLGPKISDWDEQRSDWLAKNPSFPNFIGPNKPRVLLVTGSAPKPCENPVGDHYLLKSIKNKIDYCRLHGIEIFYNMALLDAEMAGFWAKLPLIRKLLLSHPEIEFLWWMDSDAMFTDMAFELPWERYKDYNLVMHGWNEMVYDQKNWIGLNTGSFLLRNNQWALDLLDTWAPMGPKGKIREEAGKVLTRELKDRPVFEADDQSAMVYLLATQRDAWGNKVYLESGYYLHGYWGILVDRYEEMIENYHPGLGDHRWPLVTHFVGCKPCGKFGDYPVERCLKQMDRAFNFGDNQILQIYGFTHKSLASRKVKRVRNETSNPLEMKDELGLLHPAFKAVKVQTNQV

T3: IRX10-L fused to hRluc fragment [F1] or [F2] (Arabidopsis thaliana) (UniProt Q940Q8)
T3 sequence: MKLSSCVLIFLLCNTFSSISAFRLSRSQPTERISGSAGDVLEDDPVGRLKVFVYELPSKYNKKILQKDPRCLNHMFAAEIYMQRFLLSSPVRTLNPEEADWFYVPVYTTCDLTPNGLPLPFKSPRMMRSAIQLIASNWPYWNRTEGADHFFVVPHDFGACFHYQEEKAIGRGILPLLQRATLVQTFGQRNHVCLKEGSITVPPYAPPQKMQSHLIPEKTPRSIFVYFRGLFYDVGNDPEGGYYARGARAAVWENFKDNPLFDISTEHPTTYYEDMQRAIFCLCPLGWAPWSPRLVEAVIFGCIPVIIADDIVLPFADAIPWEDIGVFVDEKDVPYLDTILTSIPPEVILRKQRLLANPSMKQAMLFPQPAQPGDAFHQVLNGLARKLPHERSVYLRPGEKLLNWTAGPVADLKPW

T4: IRREGULAR XYLEM9 (IRX9) fused to hRluc fragment [F1] or [F2] (Arabidopsis thaliana) (UniProt Q9ZQC6)
T4 sequence: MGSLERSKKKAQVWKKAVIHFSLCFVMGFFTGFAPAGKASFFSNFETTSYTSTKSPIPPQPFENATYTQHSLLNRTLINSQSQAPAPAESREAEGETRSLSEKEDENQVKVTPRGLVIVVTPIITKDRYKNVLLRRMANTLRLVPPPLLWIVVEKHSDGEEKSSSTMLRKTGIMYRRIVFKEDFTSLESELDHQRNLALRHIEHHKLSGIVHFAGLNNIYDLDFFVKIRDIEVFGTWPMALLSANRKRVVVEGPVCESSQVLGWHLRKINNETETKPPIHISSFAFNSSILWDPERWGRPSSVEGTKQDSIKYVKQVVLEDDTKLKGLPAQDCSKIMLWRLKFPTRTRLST

T5: IRX14 fused to hRluc fragment [F1] or [F2] (Arabidopsis thaliana) (UniProt Q8L707)
T5 sequence: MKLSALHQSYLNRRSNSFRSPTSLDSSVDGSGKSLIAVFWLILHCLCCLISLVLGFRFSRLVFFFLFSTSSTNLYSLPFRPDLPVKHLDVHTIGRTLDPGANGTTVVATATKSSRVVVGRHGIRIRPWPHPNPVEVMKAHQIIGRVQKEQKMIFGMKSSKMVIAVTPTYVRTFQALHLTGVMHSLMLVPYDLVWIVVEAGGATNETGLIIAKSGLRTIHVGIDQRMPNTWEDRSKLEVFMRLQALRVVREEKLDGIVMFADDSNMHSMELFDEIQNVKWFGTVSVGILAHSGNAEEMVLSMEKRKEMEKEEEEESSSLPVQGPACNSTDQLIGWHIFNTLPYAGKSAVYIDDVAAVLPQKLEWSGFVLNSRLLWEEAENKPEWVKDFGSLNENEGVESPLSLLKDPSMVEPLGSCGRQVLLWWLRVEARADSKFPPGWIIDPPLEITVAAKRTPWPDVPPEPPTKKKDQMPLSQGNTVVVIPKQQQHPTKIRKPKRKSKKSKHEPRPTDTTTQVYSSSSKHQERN

T6: IRX10 fused to hRluc fragment [F1] or [F2] (Arabidopsis thaliana) (UniProt Q9FZJ1)
T6 sequence: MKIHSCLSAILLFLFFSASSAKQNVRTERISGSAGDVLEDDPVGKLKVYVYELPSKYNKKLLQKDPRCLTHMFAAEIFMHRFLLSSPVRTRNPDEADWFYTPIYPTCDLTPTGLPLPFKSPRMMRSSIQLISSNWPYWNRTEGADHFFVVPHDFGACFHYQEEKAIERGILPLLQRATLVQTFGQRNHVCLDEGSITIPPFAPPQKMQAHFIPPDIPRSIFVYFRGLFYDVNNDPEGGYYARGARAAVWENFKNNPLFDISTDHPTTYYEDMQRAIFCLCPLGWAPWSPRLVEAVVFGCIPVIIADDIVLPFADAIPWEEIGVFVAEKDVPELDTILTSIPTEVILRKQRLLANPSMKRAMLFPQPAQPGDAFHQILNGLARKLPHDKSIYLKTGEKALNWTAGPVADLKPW

B1: XXT2 fused to hRluc fragment [F1] or [F2] (protein, UniProt O22775 1-461)
chain: T2 sequence
B2: IRREGULAR XYLEM9 (IRX9) fused to hRluc fragment [F1] or [F2] (protein, UniProt Q9ZQC6 1-351)
chain: T4 sequence

Columns and labels:
Test in all cases: split reporter; Rluc-PCA: proteins with C-terminal hRluc[F1]-HA and hRluc[F2]-FLAG co-expressed with p19 in N. benthamiana leaves for 72 h (Agrobacterium OD600 0.2 each, p19 0.05); pooled leaf discs macerated in 0.5 M NaCl, 0.1 M potassium phosphate pH 7.4, 1 mM EDTA, 0.02% BSA, protease inhibitors; 10 uM coelenterazine-h, luminescence 30 s; compared with p19 alone
[1] = target: T1, MURUS3/KATAMARI1 (MUR3) fused to hRluc fragment [F1] or [F2] (Arabidopsis thaliana)
[2] = target: T2, XXT2 fused to hRluc fragment [F1] or [F2] (Arabidopsis thaliana)
[3] = target: T3, IRX10-L fused to hRluc fragment [F1] or [F2] (Arabidopsis thaliana)
[4] = target: T4, IRREGULAR XYLEM9 (IRX9) fused to hRluc fragment [F1] or [F2] (Arabidopsis thaliana)
[5] = target: T5, IRX14 fused to hRluc fragment [F1] or [F2] (Arabidopsis thaliana)
[6] = target: T6, IRX10 fused to hRluc fragment [F1] or [F2] (Arabidopsis thaliana)

binding [1]	binding [2]	binding [3]	binding [4]	binding [5]	binding [6]	Binder
binds	no binding					B1
		no binding	no binding	no binding	no binding	B2
